In PubChem BioAssay AID485290 (National Center for Advancing Translational Sciences (NCATS), 2010):
In all, about 350,000 compounds went through this assay and about 990 (0.28%) were called active. Inconclusive results, whose numbers are uncertain, are shown with a selection of clear calls. Calls follow the shape of the dose curve; as a rule, active = well fitted inhibition curve with a large enough effect; inconclusive = small, poorly fitted or top-dose-only effect; inactive = no such curve, though single readings can be large or run the other way. Where the call is inconclusive, the potency comes from a doubtful curve fit.

Target: Tyrosyl-DNA phosphodiesterase 1 (Homo sapiens) (UniProt Q9NUW8)
Experiment: qHTS Assay for Inhibitors of Tyrosyl-DNA Phosphodiesterase (TDP1); also: nearly all actives have a fitted effect of over 40% in size
Conditions: recombinant TDP1, AlphaScreen DNA substrate cleavage; series mostly up to 130 µM
Outline: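 Enzyme-compound mixtures sat 15 min at room temperature, followed by a 5 min reaction with 15 nM final substrate and 10 min with AlphaScreen beads. Recombinant human Tdp1 was used at 1 nM final.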
Potency is read from the fitted curve at half-maximal effect; tags tell the direction and shape of the fitted curve.

UniProt Q9NUW8, sequence (Q9NUW8 whole entry, looked up): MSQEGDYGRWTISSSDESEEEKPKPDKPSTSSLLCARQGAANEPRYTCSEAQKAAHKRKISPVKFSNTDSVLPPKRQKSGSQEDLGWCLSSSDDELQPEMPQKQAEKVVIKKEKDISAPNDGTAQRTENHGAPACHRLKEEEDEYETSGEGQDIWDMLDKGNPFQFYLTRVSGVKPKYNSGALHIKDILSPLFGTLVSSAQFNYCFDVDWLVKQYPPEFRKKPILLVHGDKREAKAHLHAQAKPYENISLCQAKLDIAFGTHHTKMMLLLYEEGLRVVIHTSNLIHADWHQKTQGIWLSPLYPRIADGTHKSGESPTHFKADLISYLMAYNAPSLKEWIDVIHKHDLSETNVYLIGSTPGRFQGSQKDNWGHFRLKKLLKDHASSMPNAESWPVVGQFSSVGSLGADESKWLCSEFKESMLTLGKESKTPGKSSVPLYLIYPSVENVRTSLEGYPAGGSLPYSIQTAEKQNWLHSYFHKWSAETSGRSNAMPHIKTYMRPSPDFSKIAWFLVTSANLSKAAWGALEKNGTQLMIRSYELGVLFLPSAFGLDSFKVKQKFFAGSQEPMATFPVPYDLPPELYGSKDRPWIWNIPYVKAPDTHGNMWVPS

SMILES	Potency
CCOC(=O)C1CCN(C(=O)Nc2ccc3nc(-c4ccco4)c(-c4ccco4)nc3c2)CC1	active: 35.5 µM
CC(C)c1nc2cc(Cl)ccc2n(Cc2ccccc2)c1=O	inconclusive: 56.2 µM [inhibitor, partial curve]
Cc1nc(Cc2nnc(SCC(=O)N3CC(=O)Nc4ccccc43)o2)cs1	inconclusive: 39.8 µM [inhibitor, partial curve]
O=C(N/N=C/c1c(Cl)cccc1Cl)c1ccc(-n2cnnn2)cc1	active: 56.2 µM
Cn1c(O)c(N=NC(=O)c2ccccc2O)c2ccccc21	inconclusive: 79.4 µM [inhibitor, single point]
Cc1c(O)nc(SCC(=O)Nc2ccc3c4c(cccc24)CC3)n(-c2ccc(F)cc2)c1=O	inactive
Cc1ccc(NC(=O)CSCn2nnc3c(=O)[nH]c(Cc4ccc(F)cc4)nc32)c(C)c1	inconclusive: 70.8 µM [inhibitor, single point]
Cc1ccc(Nc2nnc(SCC(=O)NCc3ccco3)s2)cc1	inconclusive: 89.1 µM [inhibitor, single point]
COc1cc(/C=C2/NC(=O)NC2=O)cc(Br)c1OCc1ccc(C(=O)O)cc1	active: 70.8 µM
CC(=O)OCC1=C(C(=O)O)N2C(=O)C(NC(=O)c3ccc(COc4c(C)cccc4Cl)o3)C2SC1 (configuration not stated)	inconclusive: 31.6 µM [inhibitor, full curve]
Cc1ccccc1-c1nc(-n2ccnc2)c2ccccc2n1	inconclusive: 12.6 µM [inhibitor, partial curve, poor fit]
O=C(Cc1ccc(Cl)cc1)SCc1ccccc1	active: 31.6 µM
COc1cc(/C=C/c2cc(C(=O)O)c3ccccc3n2)cc(OC)c1O	inconclusive: 1.12 µM [inhibitor, full curve]
COc1ccccc1NC(C)=[N+](C)CCNS(=O)(=O)c1ccc(Cl)cc1	inconclusive: 50.1 µM [inhibitor, partial curve]
COc1ccc(N2C(=O)CC(N(CCc3ccc(S(N)(=O)=O)cc3)C(=S)Nc3ccccc3)C2=O)cc1 (configuration not stated)	inconclusive: 100 µM [inhibitor, single point]
CC1(C)SC2C(N3C(=O)C(c4ccccc4)NC3(C)C)C(=O)N2C1C(=O)O (configuration not stated)	inconclusive: 22.4 µM [inhibitor, partial curve]
CSc1nc(Sc2ccccc2Cl)c2ccccc2n1	inconclusive: 10 µM [inhibitor, full curve, poor fit]
COc1ccc(-c2cn3cccnc3n2)cc1NC(=O)c1ccc(Br)o1	active: 50.1 µM
CCCCc1ccc(NC(=O)CSc2nc(=O)n3cc(C)ccc3n2)cc1	inactive
COc1ccc(C(=O)CC(=O)c2ccc(C(C)(C)C)cc2)cc1	active: 20 µM
COc1ccc(OC)c2c(C)cc(N3CCN(C(=O)c4ccc(F)cc4)CC3)nc12	inactive
CCC(C(=O)NCc1cccnc1)n1nc(C)n2c(cc3occc32)c1=O (configuration not stated)	inactive
C/C(N)=C(/C#N)C(=O)CSc1nnc(Nc2cccc(C)c2)s1	inconclusive: 35.5 µM [inhibitor, partial curve]
Cc1ccc2c(CC(=O)OCc3cc(=O)n4c(n3)sc3ccccc34)coc2c1	active: 25.1 µM

SMILES	Potency
CNCCCOc1ccc(C)cc1Br	inconclusive: 11.2 µM [inhibitor, partial curve]
O=C(NCC1CCCO1)c1ccc2c(c1)N(Cc1ccccc1)C(=O)CS2=O (configuration not stated)	inconclusive: 89.1 µM [inhibitor, single point]
COc1cccc(F)c1C(=O)NC(=O)Nc1ccc2nc(C)oc2c1	inconclusive: 44.7 µM [inhibitor, single point]
O=C(N/N=C/c1ccc(O)c(O)c1)c1ccc(-n2cnnn2)cc1	inconclusive: 25.1 µM [inhibitor, partial curve]
Cc1ccc(NC(=O)c2c3c(nc4ccccc24)CCC3)cc1S(=O)(=O)N(C)C	inactive
CC1CCC2C(=O)N3C(CCC(C)C3c3ccc(-c4ccco4)cc3)C(=O)N2C1c1ccc(-c2ccco2)cc1 (configuration not stated)	active: 3.55 µM
Cc1cc(=O)oc2cc(OCC(=O)N/N=C/c3cc([N+](=O)[O-])ccc3O)ccc12	inconclusive: 70.8 µM [inhibitor, single point]
CCOC(=O)c1sc(NC(=O)C2CC=CCC2C(=O)O)nc1C (configuration not stated)	active: 22.4 µM
O=C(O)c1nn2cc(CCO)cnc2c1Cl	inconclusive: 39.8 µM [inhibitor, full curve]
C=CCn1c(CSc2nc3ccccc3s2)nnc1SCC(=O)NCc1ccco1	active: 50.1 µM
Cc1ccc(/C=C2/SC(=O)NC2=S)o1	inconclusive: 3.55 µM [inhibitor, partial curve]
COc1ccccc1-n1cnc(N)c1C(C)=O	inactive
Cc1nc2nc(SCC(=O)Nc3ccccc3Cl)nn2c(C)c1Cc1ccccc1	inactive
CCOC(=O)c1ncn2c1C(=O)OC2(C)C	inactive
COCCNc1oc(/C=C/c2ccc(F)cc2)nc1S(=O)(=O)c1ccccc1	inactive
OC[C@@H]1[C@@H](c2ccc(F)cc2)C(c2ccc(F)cc2)=NN1c1ccccc1	inconclusive: 44.7 µM [inhibitor, partial curve]
CC(=O)c1cccc(NC(=O)CCc2nnc3ccc(NCc4ccco4)nn23)c1	active: 25.1 µM
CCn1c(C(=O)Nc2cc(C)cc(C)c2)cc2sc(Cl)cc21	inactive
O=C(O)c1ccc(Cn2nnc3sc4c(c3c2=O)CCCC4)cc1	active: 50.1 µM
CC1CC(NC(=O)c2c(O)nc3sccn3c2=O)CC(C)(C)C1 (configuration not stated)	inconclusive: 0.126 µM [inhibitor, full curve, poor fit]
COc1cc(/C=N/NC(=O)c2cccnc2)ccc1OC(=O)c1ccc([N+](=O)[O-])cc1	active: 44.7 µM
CC(C)C(OC(=O)c1ccco1)C(=O)NC1CCCC1 (configuration not stated)	inconclusive: 100 µM [inhibitor, partial curve]
O=C(Cn1cc(C(F)(F)F)ccc1=O)NC1CCCC1	inconclusive: 56.2 µM [inhibitor, partial curve]
